Among the data in the supplement of paper PMC6135742 are total cell number values, retold here.

Structures can show the parent of a compound that is named as a salt. ± gives the standard deviation of the averaged measurements. Over roughly 2,600 compounds, “total cell number (DAPI+ nuclei) relative to DMSO vehicle control” has its median near -1.4; the lowest 2% begin near -23. The list shows a part of the results.

The assay concerns jimpy (Plp1 jimpy) mouse iPSC-derived oligodendrocyte progenitor cells. The assay is described as follows: total cell number (DAPI+ nuclei) relative to DMSO vehicle control (SDs above negative control mean); higher = more surviving cells. The following applies: 10 µM; 3 days.
On to `CCn1cc(C(=O)O)c(=O)c2ccc(C)nc21` [Nalidixic acid sodium], for which the total cell number is -1.97. Next, `CCn1cc(C(=O)O)c(=O)c2ccc(C)nc21` [Nalidixic acid]: -2.1.

In turn, `C[C@H]1[C@@H](O)O[C@@H]2O[C@@]3(C)CC[C@H]4[C@H](C)CC[C@@H]1[C@@]24OO3` [Dihydroartemisinin (DHA)] gave a total cell number of -7.28. Under `COc1ccc(-c2oc3c(CC=C(C)C)c(O[C@@H]4O[C@H](CO)[C@@H](O)[C@H](O)[C@H]4O)cc(O)c3c(=O)c2O[C@@H]2O[C@@H](C)[C@H](O)[C@@H](O)[C@H]2O)cc1` [Icariin] stands -2.65. Next, `Cc1cccc(/C=C/c2ccccc2)n1`: -0.752; `COc1ccc2cc(CCC(C)=O)ccc2c1` [Nabumetone]: -1.09; `c1ccc(C(NCCNC(c2ccccc2)c2ccccc2)c2ccccc2)cc1`: -7.34.

Take `Cc1ccc(S(=O)(=O)NC(=O)NN2CC3CCCC3C2)cc1` (configuration not stated) [Gliclazide]: the total cell number turned out to be 0.277. Under `Cc1cc(Cn2cnc3c2CC(C(=O)O)N(C(=O)C(c2ccccc2)c2ccccc2)C3)ccc1N(C)C` (configuration not stated) stands -1.76. `O=c1c(O)c(-c2cc(O)c(O)c(O)c2)oc2cc(O)cc(O)c12` [Myricetin]: the total cell number is -1.15 ± 0.82. `N#CC(C#N)=C(N)/C(C#N)=C/c1ccc(O)cc1` [Tyrphostin AG 112]: the total cell number is -0.733. Under `COc1cc2nc(N3CCN(C(=O)c4ccco4)CC3)nc(N)c2cc1OC` [Prazosin HCl] stands -22.3; under `COc1cc2nc(N3CCN(C(=O)c4ccco4)CC3)nc(N)c2cc1OC` [Prazosin hydrochloride], -10.2; under `NCCS(=O)(=O)O` [Taurine], -0.885.

For `O=C(Nc1cc(C(F)(F)F)ccc1N1CCCCC1)c1ccncc1`, the total cell number was -0.285. In turn, `CCCCS(=O)(=O)N[C@@H](Cc1ccc(OCCCCC2CCNCC2)cc1)C(=O)O` [Tirofiban hydrochloride monohydrate] showed a total cell number of -0.885. Under `COc1nc(C)nc(Cl)c1NC1=NCCN1` [Moxonidine] stands -0.152; under `COc1nc(C)nc(Cl)c1NC1=NCCN1` [Moxonidine hydrochloride], -0.533.

In turn, `Cc1ccc(NC(=O)c2ccc(CN3CCN(C)CC3)cc2)cc1Nc1nc(-c2cccnc2)cs1` [Masitinib (AB1010)] registered a total cell number of -14. `N=C(N)NC(=N)N1CCOCC1` [Moroxydine HCl] displayed a total cell number of -1.19. With `CC(C)(C#N)c1ccc(N2C(=O)OCc3cnc4ccc(-c5cnc6ccccc6c5)cc4c32)cc1`, the total cell number was -9.24. `CCN(CC)Cc1ccc2cc(COC(=O)Nc3ccc(C(=O)NO)cc3)ccc2c1` [Givinostat (ITF2357)] registered a total cell number of -11.3.

Turning to `CC(=O)Oc1cccc2c1C(=O)c1c(OC(C)=O)cc(C(=O)O)cc1C2=O` [Diacerein], the total cell number was determined as 1.39. Under `CC(C)C[C@@H](C=O)NC(=O)[C@H](CC(C)C)NC(=O)[C@H](CC(C)C)NC(=O)OCc1ccccc1` stands -9.47; under `O=c1oc(Cl)c(Cl)c2ccccc12` [3,4-Dichloroisocoumarin], -0.221. Next, `COC1=CC(c2cc3ccccc3[nH]2)=N/C1=C\c1[nH]c(C)cc1C` [Obatoclax Mesylate (GX15-070)]: -27.6; `CN(C)CCc1c[nH]c2ccc(Cn3cncn3)cc12` [Rizatriptan Benzoate]: -2.26. In the case of `CN(C)CCc1c[nH]c2ccc(Cn3cncn3)cc12` [Rizatriptan benzoate salt], the total cell number came out at 0.0549.

For `OCCN1CCN(CCCN2c3ccccc3Sc3ccc(Cl)cc32)CC1` [Perphenazine], the total cell number is -8.9.

As for `OC[C@H]1O[C@@H](Oc2ccc(O)cc2)[C@H](O)[C@@H](O)[C@@H]1O` [Arbutin], the total cell number was -1.48.

Take `O=C(c1ccc(C(=O)N2CCC(N3CCCC3)CC2)c(Nc2ccccc2)c1)N1CCC(N2CCCC2)CC1`: the total cell number was -1.12. For the molecule `NCCCCCCCCCCN` [1,10-Diaminodecane], the total cell number is -0.604. Under `COc1ccc(NS(=O)(=O)c2ccc(N)cc2)nn1` [Sulfamethoxypyridazine] stands 0.904; under `Nc1ccc(C(=O)NCC(=O)O)cc1` [4-Aminohippuric Acid], 0.763; under `CCCC(=O)O[C@]1(C(=O)COC(C)=O)CC[C@H]2[C@@H]3C[C@H](F)C4=CC(=O)C=C[C@]4(C)[C@@]3(F)[C@@H](O)C[C@@]21C` [Difluprednate], 4.34.

As to `CN(NC(=O)CC(=O)NN(C)C(=S)c1ccccc1)C(=S)c1ccccc1` [Elesclomol (STA-4783)], the total cell number was -1.04.

`CO[C@@H]1[C@@H](OC(N)=O)[C@@H](O)[C@H](Oc2ccc3c(O)c(NC(=O)c4ccc(O)c(CC=C(C)C)c4)c(=O)oc3c2C)OC1(C)C` [Novobiocin Sodium] registered a total cell number of -0.427.

For `CCN1CCN(C(=O)N[C@@H](C(=O)N[C@@H]2C(=O)N3[C@@H]2SC(C)(C)[C@@H]3C(=O)O)c2ccccc2)C(=O)C1=O` [Piperacillin Sodium], the total cell number is -1.22. Next, `CN(C)CCC[C@@]1(c2ccc(F)cc2)OCc2cc(C#N)ccc21` [Escitalopram Oxalate]: 1.42; `CC1=CC(=O)NS(=O)(=O)O1` [Acesulfame Potassium]: 0.0291; `CN1CCCC(n2nc(Cc3ccc(Cl)cc3)c3ccccc3c2=O)CC1` (configuration not stated) [Azelastine HCl]: -6.76.

`COc1cc(OC)c(C=C2C(=O)Nc3ccccc32)c(OC)c1` registered a total cell number of -4.15. Under `NC(=O)N/N=C/c1ccc([N+](=O)[O-])o1` [Nitrofural] stands -3.72; under `O=C(O[C@H]1CN2CCC1CC2)N1CCc2ccccc2[C@@H]1c1ccccc1` [Solifenacin succinate], -6.26. Next, `O=S(=O)(c1ccccc1)c1cnc2c(N3CCNCC3)cccc2c1`: -1.24.

In turn, `COc1ccc(C2(CNC(=O)c3ccc(NC(=O)c4ccco4)cc3)CCOCC2)cc1` returned a total cell number of -6.22. Under `CC(C)C[C@H](NC(=O)[C@H](CCc1ccccc1)NC(=O)CN1CCOCC1)C(=O)N[C@@H](Cc1ccccc1)C(=O)N[C@@H](CC(C)C)C(=O)[C@@]1(C)CO1` [Carfilzomib (PR-171)] stands -11.3.
